In PubChem BioAssay AID488969 (Vanderbilt High Throughput Screening Facility, 2010) one finds z-score data, which are given here for 109 compounds.

Each structure is given as a SMILES string. In all, about 110,000 compounds were measured (“z-score”: median about -0.1, highest 2% from about 2 on). The list shows a part of the results. Calls of active or inactive are those of the source.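 Rule for the calls: active = z-score in the third read window above 3 or below -3; inactive = the rest.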

The assay concerns the target Metabotropic glutamate receptor 8 (Rattus norvegicus) (UniProt P70579). In words: mGluR8 Gi/Go-coupled signaling modulation – cell-based, rat, thallium flux, HTS, primary screen (AID 488969). The following applies: HEK293 rat mGluR8, GIRK (G protein-gated inwardly rectifying potassium channel) thallium flux, FluoZin2; at 10 µM; stronger effect = higher value; submaximal glutamate (EC20) added with thallium.
Chain of UniProt P70579 (P70579 whole entry, looked up): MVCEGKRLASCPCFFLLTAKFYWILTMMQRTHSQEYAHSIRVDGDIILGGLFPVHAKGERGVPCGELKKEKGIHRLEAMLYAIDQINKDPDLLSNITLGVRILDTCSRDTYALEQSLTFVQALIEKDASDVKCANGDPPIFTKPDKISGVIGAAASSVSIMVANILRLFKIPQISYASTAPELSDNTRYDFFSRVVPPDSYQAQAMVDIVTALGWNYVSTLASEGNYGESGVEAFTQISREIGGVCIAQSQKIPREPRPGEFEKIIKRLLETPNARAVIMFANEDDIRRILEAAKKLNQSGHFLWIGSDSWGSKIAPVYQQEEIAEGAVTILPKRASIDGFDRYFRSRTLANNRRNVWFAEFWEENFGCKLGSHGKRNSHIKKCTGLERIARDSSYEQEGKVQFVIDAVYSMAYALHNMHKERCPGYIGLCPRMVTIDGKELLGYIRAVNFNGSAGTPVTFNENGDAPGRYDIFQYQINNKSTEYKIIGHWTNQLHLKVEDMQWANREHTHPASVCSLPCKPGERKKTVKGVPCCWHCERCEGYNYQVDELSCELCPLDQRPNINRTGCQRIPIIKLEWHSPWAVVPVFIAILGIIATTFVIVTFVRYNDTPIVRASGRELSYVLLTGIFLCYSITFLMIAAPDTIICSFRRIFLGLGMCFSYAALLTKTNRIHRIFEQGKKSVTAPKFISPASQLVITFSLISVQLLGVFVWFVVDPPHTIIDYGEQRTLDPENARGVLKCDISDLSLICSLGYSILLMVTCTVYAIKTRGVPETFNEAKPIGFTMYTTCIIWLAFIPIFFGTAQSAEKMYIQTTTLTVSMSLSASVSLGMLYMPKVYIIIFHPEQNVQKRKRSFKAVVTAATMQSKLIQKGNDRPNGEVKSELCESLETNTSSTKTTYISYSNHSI
`COc1ccc(/C(O)=C2\C(=O)C(=O)N(c3cc(C)on3)C2c2cccc(OC)c2OC)cc1C` (centres undefined) registered a z-score of -0.187.

With `Cc1cccc(C)c1NC(=O)CSc1nc2ccccc2c(=O)[nH]1`, the z-score is 0.493.

`Cc1cccc(-n2c(=O)[nH]c3c(C(N)=O)nc(C(C)C)nc32)c1` yielded a z-score of -0.0464.

`CCOC(=O)/C(=C/c1ccc(OC(=O)c2ccccc2)cc1)C(C)=O`: the z-score was found to be 0.777.

The compound `CCOC(=O)C(NC(=O)c1ccccc1)(Nc1nnc(C)s1)C(F)(F)F` (centres undefined) had a z-score of -0.152.

`COC(=O)c1cc(C)sc1NC(=O)CCCC(=O)O` yielded a z-score of -0.45.

The compound `O=C(Nc1sc2c(c1C(=O)c1ccc(Cl)cc1)CCCC2)c1cccnc1` showed a z-score of -0.771.

Compound `O=C(Nc1ccccc1)ON=C1c2ccccc2-c2ccccc21` gave a z-score of -0.235.

Consider `Cc1cc2oc(=O)cc(CN3CCCCC3C)c2c(C)c1Cl` (centres undefined), for which the z-score stood at 0.58.

For the compound `CCOC(=O)c1cc(-c2ccccc2)sc1NC(=O)C(C)(C)C`, the z-score was -0.178.

The compound `Cc1cc(C(=O)N2CCN(c3ccccc3)CC2)c(C)o1` showed a z-score of 0.825.

`CC(C)CNC(=O)[C@H](Cc1ccccc1)NC(=O)c1ccco1`: the z-score came out at 1.28.

As to `CCNCc1nc2cc(OC)c(OC)cc2c(=O)[nH]1`, the z-score is -0.0665.

Regarding `CCC(C)c1ccccc1NC(=O)c1cccnc1` (centres undefined), the z-score is -0.0512.

For `COc1ccc(CN2C(=O)CN=C2Nc2cc(C)ccc2C)cc1`, the z-score is 0.232.

For the compound `CCc1ccc(OCC(=O)Nc2cccc3c2CCCC3)cc1`, the z-score was -0.0837.

With `O=C(CN(C(=O)CCC(=O)Nc1nccs1)c1ccc2c(c1)OCO2)NCC1CCCO1` (centres undefined), the z-score is -0.616.

`COC(=O)c1c(O)cc(C(C)(C)C)n(-c2ccccc2)c1=O` yielded a z-score of 0.104.

On to `CCN(CC)S(=O)(=O)c1ccc(/C=C/C(=O)Nc2ccc(Br)cc2F)cc1`, for which the z-score was -0.05.

`CCC(=O)c1ccc(OCc2ccc(C(=O)OC)cc2)c(OC)c1`: the z-score was 0.0803.

As for `COc1ccc(NC(=O)COC(=O)c2ccc(NS(=O)(=O)/C=C/c3ccccc3)cc2)cc1`, the z-score is -0.128.

As to `Cc1ccc(NCN2C(=O)C3CC=CCC3C2=O)cc1` (centres undefined), the z-score is -0.247.

For `COc1ccc(NC(=O)CSc2ncn[nH]2)c([N+](=O)[O-])c1`, the z-score was -0.152.

Compound `COc1ccc(-c2noc(CN3CCOCC3)n2)cc1OC` showed a z-score of -0.408.

Compound `Cc1ccc(-c2nc3cc(NC(=O)C(C)C)ccc3o2)cc1C` had a z-score of 0.689.

For the compound `C=CCn1c(Cc2cccc3ccccc23)n[nH]c1=S`, the z-score turned out to be 0.0356.

The compound `CCN(CC)S(=O)(=O)c1cccc(C(=O)NC(C(=O)Nc2nnc(C)s2)C(C)C)c1` (centres undefined) came in with a z-score of -0.343.

As for `COc1cccc(-n2c(Cn3nc(C(F)(F)F)cc3C)n[nH]c2=S)c1`, the z-score worked out at 0.929.

For `COC(=O)COC(=O)c1ccc(-n2nnnc2SC)cc1`, the z-score was -0.306.

In the case of `CC(C)NC(=O)C1CCCN(S(=O)(=O)c2cccs2)C1` (centres undefined), the z-score was -0.102.

The compound `Cc1ccc(S(=O)(=O)N/N=C\c2ccc([N+](=O)[O-])o2)cc1` gave a z-score of 0.118.

`CCC(C)[C@H](NC(=O)N1CCCC1)C(=O)OC` (some centres undefined): the z-score stood at 0.194.

Consider `COc1ccc(OC)c(CNC(=O)C2CCCN(c3nc4ccccc4o3)C2)c1` (centres undefined), for which the z-score was -0.601.

`Cc1ccc(C)c(-n2nnnc2SCC(=O)NCCC2=CCCCC2)c1`: the z-score was -0.195.

The compound `O=C(NCc1ccc(N2CCCC2=O)cc1)c1cnccn1` came in with a z-score of -0.188.

`Cc1nc2ccc(C(=O)O)cc2[nH]1` came in with a z-score of -1.01.

In the case of `Cc1cc(C(=O)CSc2n[nH]c(N)n2)c(C)n1C1CC1`, the z-score turned out to be 0.00139.

`CC(Oc1ccccc1Cl)C(=O)/C=C/N(C)C` (centres undefined): the z-score was 0.236.

On to `N#CC1=C(N)Oc2n[nH]c(-c3cccs3)c2C1c1ccoc1` (centres undefined), for which the z-score is active: -3.2.

Compound `O=C(N/N=C/c1ccccc1)c1cc(=O)[nH]c2ccccc12` came in with a z-score of -0.147.

As to `O=C(C1CCCN(S(=O)(=O)Cc2ccccc2)C1)N1CCC(Cc2ccccc2)CC1` (centres undefined), the z-score was -0.416.

Compound `N#CC1=C(SCC(=O)NCc2ccccc2)NC(=O)CC1c1ccco1` (centres undefined) had a z-score of 1.77.

`COc1cc(Br)c(C(C)NC(=O)c2ccccc2)cc1OC` (centres undefined): the z-score worked out at 0.122.

Consider `CC(=O)NC(C)C(=O)OCC(=O)Nc1ccc(Br)cc1` (centres undefined), for which the z-score amounted to 0.183.

On to `CCOC(=O)N1CCN(CC(O)COc2ccccc2C(C)CC)CC1` (centres undefined), for which the z-score is -0.362.

In the case of `Cc1cccc(NC(=O)c2cc(NC(=O)c3ccco3)ccc2Cl)n1`, the z-score was -0.288.

Take `Cc1ccccc1NC(=O)CSC1=C(C#N)C(c2ccsc2)CC(=O)N1` (centres undefined): the z-score turned out to be 0.153.

`Cn1c(=O)cc(SCC(=O)Nc2ccccn2)c2ccccc21` gave a z-score of 1.2.

`CCOC(=O)N1CCN(c2cc(=O)n(Cc3ccc(F)cc3)c(=O)[nH]2)CC1`: the z-score is -0.547.

As to `CC(=O)Nc1sc2c(c1C(=O)N1CCOCC1)CCCCC2`, the z-score was -0.374.

In the case of `Nn1c(-c2cccs2)nc2sc3c(c2c1=O)CCCC3`, the z-score was 0.457.

Regarding `COc1ccc(C(=O)NCC(=O)Nc2ccccc2)cc1OC`, the z-score was determined as 0.402.

Turning to `CC(C)c1ccccc1NC(=S)NC1CCN(Cc2ccccc2)CC1`, the z-score is -0.495.

As to `CCCn1c(=N)n(CC(=O)OCC)c2ccccc21`, the z-score was -0.118.

For `Cc1c(CCC(=O)O)c(=O)n2c([nH]c3ccccc32)c1C#N`, the z-score is -0.166.

In turn, `COc1cccc(CN(CC(=O)NC2CCCC2)C(=O)Cn2nnc(-c3cccs3)n2)c1` registered a z-score of -0.121.

`Cc1cc(C)cc(NC(=O)C2CCCN(c3nccc(C)n3)C2)c1` (centres undefined) showed a z-score of 0.107.

In turn, `O=C1NC2CCCCC2NC1CC(=O)N1CCN(c2ccccc2)CC1` (centres undefined) gave a z-score of -0.0836.

The compound `CCOc1nnnc2c1sc1nc(N3CCOCC3)c3c(c12)CCCC3` registered a z-score of 0.00985.

`CC(NC(=O)Cn1c(=O)oc2cc(S(=O)(=O)N3CCCC3)ccc21)c1ccccc1` (centres undefined): the z-score was -0.00219.

With `O=C(NCc1ccco1)C1CC(c2cccc([N+](=O)[O-])c2)=NO1` (centres undefined), the z-score is -0.0826.

`COc1ccc2cc3c(N)nn(C(=O)Cc4ccccc4OC)c3nc2c1`: the z-score is -0.119.

Take `O=C(N/N=C/c1ccc(OC(=O)c2cccs2)cc1)c1ccc(F)cc1`: the z-score was -0.195.

Take `COc1ccc(CNc2nc(-c3ccccc3)nn2C(=O)c2cccs2)cc1`: the z-score turned out to be 0.501.

The compound `CCCc1cc(=O)oc2c(C)c(OCC(=O)c3ccc(N4CCCC4)cc3)ccc12` had a z-score of -1.57.

As to `CCCSc1nnc(Nc2ccccc2C)s1`, the z-score was active: 4.96.

The compound `Cc1ccc(C)c(NC(=O)COC(=O)c2cccc3c2C(=O)c2ccccc2C3=O)c1` displayed a z-score of -0.271.

`CCOc1cccc2cc(-c3nnc(NCc4ccc5c(c4)OCO5)s3)c(=O)oc12` had a z-score of -0.559.

Take `Cc1cc(C)c(S(=O)(=O)Nc2ccc(OCC(=O)O)cc2)c(C)c1`: the z-score was -0.256.

`CS(=O)(=O)c1ccc2nc(NC(=O)CN3CCCCCC3)sc2c1` gave a z-score of 0.118.

In turn, `Cc1cc(NC(=O)CCc2ccc(C)o2)no1` yielded a z-score of 0.322.

In turn, `CCOP(=O)(OCC)c1nc(/C=C/c2ccccc2)oc1NCc1ccccc1` returned a z-score of -2.18.

`CCNC(=O)c1ccc(NS(=O)(=O)c2ccccc2)cc1`: the z-score is -0.0317.

In turn, `CCN1CCN(c2nc3c(C)cccn3c(=O)c2/C=C(\C#N)S(=O)(=O)c2ccccc2)CC1` yielded a z-score of -0.231.

Take `N#CC1=C(SCc2ccc(C#N)cc2)N=C(N)C(c2nc(-c3ccccc3)cs2)C12CCCCC2` (centres undefined): the z-score was 0.177.

The compound `CCSc1ncc(/C=N/Nc2ccccc2)n1C` yielded a z-score of -0.292.

For `COc1ccc2c(CC(=O)Nc3ccc(OC)c(S(=O)(=O)N4CCOCC4)c3)coc2c1`, the z-score turned out to be 0.0443.

Regarding `CC1CCC/C(=N\Nc2ccc(Cl)c(C(=O)O)c2)C1` (centres undefined), the z-score amounted to 0.274.

`O=C1c2ccccc2C(=O)c2c1cccc2N1CCN(Cc2ccccc2)CC1` gave a z-score of -0.0703.

Turning to `Cc1cc(C)c(NC(=O)/C(=C/c2ccccc2)c2ccccc2)c(C)c1`, the z-score was -0.887.

Compound `Cc1ccc(NC(=O)/C(=C\c2cccc([N+](=O)[O-])c2)NC(=O)c2cccs2)cc1` had a z-score of -0.0227.

Compound `CCN(CC)c1ccc(NC(=O)Cn2ncc3c(C)n(Cc4ccccc4F)c(C)c3c2=O)c(C)c1` had a z-score of -0.325.

Turning to `Cc1nnc(N2C(=O)C(O)=C(C(=O)c3ccco3)C2c2ccc(C(C)(C)C)cc2)s1` (centres undefined), the z-score is -0.554.

In turn, `Brc1ccc(-n2cccc2/C=N/n2cnnc2)cc1` showed a z-score of -0.152.

Regarding `Cc1ccc(C(=O)NC(Cc2c[nH]c3ccccc23)C(=O)O)cc1` (centres undefined), the z-score came to 1.07.

For `Cc1ccccc1OCC(=O)Nc1cc(Cl)ccc1Oc1ccccc1`, the z-score was -0.233.

For `N#Cc1c(NC(=S)NC(=O)c2ccccc2)sc2c1CCC2`, the z-score amounted to 0.849.

The compound `COc1cc2c(cc1OC)C(c1cccc(OC)c1OC)CC(=O)N2` (centres undefined) gave a z-score of 0.0414.

The compound `Cc1ccc(N2CC(C(=O)Nc3ccncc3)CC2=O)cc1` (centres undefined) had a z-score of -0.196.

Consider `O=[N+]([O-])c1ccc(/C=C/C2=NN(c3ccccc3)C(c3ccco3)C2)cc1` (centres undefined), for which the z-score was -0.0906.

The compound `COc1cc(C2C3=C(CC(C)(C)CC3=O)N(C)C(=O)N2C)cc(OC)c1OC` (centres undefined) came in with a z-score of 0.176.

`O=C(COC(=O)c1ccc(N2CCOCC2)c([N+](=O)[O-])c1)Nc1ccc2c(c1)OCO2` yielded a z-score of -0.12.

The compound `COc1cc(OC)c(NC(=O)CCc2ccccc2)cc1Cl` displayed a z-score of -0.786.

In turn, `Cc1c(=O)n(OCc2ccccc2)c2ccccc2[n+]1[O-]` gave a z-score of -0.129.

In turn, `O=C(CN1CCN(c2ccccc2Cl)CC1)NC1CCCc2ccccc21` (centres undefined) came in with a z-score of -0.381.

The compound `COc1cccc(Cn2cnc3c(NS(=O)(=O)c4ccc(Cl)cc4Cl)c(C)c(C)cc32)c1` displayed a z-score of 1.09.

`COc1ccccc1CNC(=O)c1ccc(S(=O)(=O)N2CCCC2)cc1`: the z-score was determined as 1.01.

The compound `COc1ccccc1NS(=O)(=O)c1ccc(O)cc1` came in with a z-score of 0.0186.

For `C=CCN(c1ccccc1)S(=O)(=O)c1cccc(C(=O)Oc2ccc3c(C)cc(=O)oc3c2)c1`, the z-score is -0.205.

For the compound `Cc1ccc(CNC(=O)C2CCC(=O)N2C2CCCCC2)cc1` (centres undefined), the z-score is -0.357.

Compound `CC(Oc1ccc(Cl)cc1)c1ccnn1S(C)(=O)=O` (centres undefined) displayed a z-score of 1.68.

Consider `Cc1c(NC(=O)C(C)N2C(=O)C3C4C=CC(C4)C3C2=O)c(=O)n(-c2ccccc2)n1C` (centres undefined), for which the z-score came to 0.0248.

`CCOC(=O)/C(=C\c1cn(C)c2ccccc12)[N+](=O)[O-]` showed a z-score of -0.094.

`C=CC(O)(C#CCN(CC)CC)c1ccccc1` (centres undefined) had a z-score of 0.2.

In turn, `Cc1ccc(CN(C(=O)c2cc3ccccc3oc2=O)C2CCS(=O)(=O)C2)cc1` (centres undefined) had a z-score of -0.00405.

`CS(=O)(=O)N1CCN(c2ccccc2NC(=O)c2cccc3ccccc23)CC1` registered a z-score of -0.227.

In the case of `O=C(Nc1ccccc1)N1CCCC(c2nc(-c3ccc(F)cc3)no2)C1` (centres undefined), the z-score is -0.45.

In turn, `O=C(O)[C@H]1CCCC[C@H]1C(=O)Nc1cc([N+](=O)[O-])ccc1F` displayed a z-score of -0.728.

Take `Cc1ccc(OCC(=O)N/N=C2/SCC(=O)N2Cc2ccccc2)cc1`: the z-score is -0.163.
